Data reported in PubChem BioAssay AID1865 (National Center for Advancing Translational Sciences (NCATS), 2009).
Among all 280,000 compounds or so, about 540 (0.19%) were called active. Inconclusive results, whose numbers are uncertain, are shown with a selection of clear calls. Calls follow the shape of the dose curve; as a rule, active = well fitted activation curve with a large enough effect; inconclusive = small, poorly fitted or top-dose-only effect; inactive = flat fitted curve, though single readings scatter. Potencies beside an inconclusive call are fits to weak or partial responses and may not hold up.

Experiment: Quantitative High-Throughput Screen for Regulators of Epigenetic Control; also: nearly all actives have a fitted effect of over 60% in size; as to GFP activation: % of control where 0% means no effect
Conditions: murine LDR cells, GFP reporter derepression, 30 h; GFP activation: at 53.9 µM (top of the series)
Outline: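 Murine LDR cells bearing a silenced CMV-driven GFP reporter were exposed to compound for 30 h at 37 C. After PBS washes, GFP-positive cells (20-120 um objects) counted by laser-scanning microplate cytometry.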
Potency is read from the fitted curve at half-maximal effect; tags tell the direction and shape of the fitted curve.

| SMILES | GFP activation | Potency |
| --- | --- | --- |
| Cc1ccc(CN2CCN(C3CCN(C(=O)Nc4ccccc4C(F)(F)F)CC3)C(=O)C2=O)cc1 | inactive: -1.3% | – |
| Cc1ccc(-c2csc(N/N=C/c3ccco3)n2)c(C)c1 | inactive: 1.52% | – |
| CC(=O)c1sc(NC(=O)c2ccc(F)cc2)nc1-c1ccccc1 | – | inconclusive: 17.8 µM [activator, single point] |
| COC(=O)/C(=C/c1c[nH]c2ccccc12)NC(C)=O | inactive: 0.971% | – |
| Cc1ccc(NC(=O)c2sc3nc(N)c(C#N)cc3c2N)cc1 | – | inconclusive: 20 µM [activator, single point] |
| CCOc1ccc(CNC(=O)Cn2ncc3c(=O)oc4ccc(C)cc4c32)cc1 | inactive: -0.815% | – |
| O=C(c1ccccc1)c1ccc2nc(Nc3ccccc3)c3nncn3c2c1 | – | inconclusive: 35.5 µM [activator, single point] |
| Cc1ccc2oc(=O)c(/C=C(\O)c3cccs3)nc2c1 | inactive: -1.07% | – |
| CCN(CC)c1ccc2cc(C(=O)NNC(=O)c3ccc(S(=O)(=O)N4CCCCC4)cc3)c(=O)oc2c1 | – | inconclusive: 5.62 µM [activator, single point] |
| Cn1c(Cc2ccccc2)nnc1SCC(=O)c1ccc(Br)s1 | – | inconclusive: 20 µM [activator, single point] |
| Cc1cc(NC(=O)C2CCCN(S(=O)(=O)c3cccc4nonc34)C2)ccc1Br (stereo not given) | – | inconclusive: 7.08 µM [activator, partial curve] |
| Cc1cc2ccccc2n1CCNCc1c(C(=O)N2CCOCC2)nc2ccccn12 | – | inconclusive: 0.631 µM [activator, partial curve, poor fit] |
| COc1ccc2cc(CNc3ccc(OC)c(OC)c3)c(=O)n(CC(=O)Nc3ccc(C)cc3)c2c1 | inactive: 8.21% | – |
| COc1ccc(C2CC(c3ccccc3)=NN2C(=O)CSc2ncn[nH]2)cc1 (stereo not given) | – | inconclusive: 3.98 µM [activator, full curve, poor fit] |
| Cc1csc2c(=O)sc(NC(=O)c3cccs3)nc12 | inactive: -3.06% | – |
| CCOc1ccc(-c2cc(C(F)(F)F)c(C#N)c(SCC(=O)Nc3ccccc3)n2)cc1 | – | inconclusive: 28.2 µM [activator, single point] |
| S=C1NC2(CCCCC2)Nc2ccccc21 | inactive: -1.39% | – |
| CCCCNC(=O)COC(=O)c1c2c(nc3ccccc13)/C(=C/c1cccs1)CC2 | – | inconclusive: 31.6 µM [activator, single point] |
| Cc1ccc([N+](=O)[O-])cc1N/C=C1\CCc2ccccc2C1=O | – | inconclusive: 6.31 µM [activator, single point] |
| NS(=O)(=O)c1ccc(CCNc2nc3c(-c4cccc(F)c4)nnn3c3ccc(Cl)cc23)cc1 | – | inconclusive: 3.55 µM [activator, single point] |
